# Assay results reported in PMC4336329 (PLoS ONE, 2015).
# The whole screen tested about 310,000 compounds, of which about 14,000 (4.5%) showed an effect of 50% or more. The effect is printed as a negative number. The list shows a part of the results.
# Molecular target: human ether-à-go-go-related gene (hERG) potassium channel (human, UniProt Q12809)
# Experiment: primary screen, population patch clamp on CHO cells stably expressing hERG
# 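Further: peak tail current of the secondary pulse compared with the same well before compound.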
# Sequence of human ether-à-go-go-related gene (hERG) potassium channel (Q12809 whole entry, looked up): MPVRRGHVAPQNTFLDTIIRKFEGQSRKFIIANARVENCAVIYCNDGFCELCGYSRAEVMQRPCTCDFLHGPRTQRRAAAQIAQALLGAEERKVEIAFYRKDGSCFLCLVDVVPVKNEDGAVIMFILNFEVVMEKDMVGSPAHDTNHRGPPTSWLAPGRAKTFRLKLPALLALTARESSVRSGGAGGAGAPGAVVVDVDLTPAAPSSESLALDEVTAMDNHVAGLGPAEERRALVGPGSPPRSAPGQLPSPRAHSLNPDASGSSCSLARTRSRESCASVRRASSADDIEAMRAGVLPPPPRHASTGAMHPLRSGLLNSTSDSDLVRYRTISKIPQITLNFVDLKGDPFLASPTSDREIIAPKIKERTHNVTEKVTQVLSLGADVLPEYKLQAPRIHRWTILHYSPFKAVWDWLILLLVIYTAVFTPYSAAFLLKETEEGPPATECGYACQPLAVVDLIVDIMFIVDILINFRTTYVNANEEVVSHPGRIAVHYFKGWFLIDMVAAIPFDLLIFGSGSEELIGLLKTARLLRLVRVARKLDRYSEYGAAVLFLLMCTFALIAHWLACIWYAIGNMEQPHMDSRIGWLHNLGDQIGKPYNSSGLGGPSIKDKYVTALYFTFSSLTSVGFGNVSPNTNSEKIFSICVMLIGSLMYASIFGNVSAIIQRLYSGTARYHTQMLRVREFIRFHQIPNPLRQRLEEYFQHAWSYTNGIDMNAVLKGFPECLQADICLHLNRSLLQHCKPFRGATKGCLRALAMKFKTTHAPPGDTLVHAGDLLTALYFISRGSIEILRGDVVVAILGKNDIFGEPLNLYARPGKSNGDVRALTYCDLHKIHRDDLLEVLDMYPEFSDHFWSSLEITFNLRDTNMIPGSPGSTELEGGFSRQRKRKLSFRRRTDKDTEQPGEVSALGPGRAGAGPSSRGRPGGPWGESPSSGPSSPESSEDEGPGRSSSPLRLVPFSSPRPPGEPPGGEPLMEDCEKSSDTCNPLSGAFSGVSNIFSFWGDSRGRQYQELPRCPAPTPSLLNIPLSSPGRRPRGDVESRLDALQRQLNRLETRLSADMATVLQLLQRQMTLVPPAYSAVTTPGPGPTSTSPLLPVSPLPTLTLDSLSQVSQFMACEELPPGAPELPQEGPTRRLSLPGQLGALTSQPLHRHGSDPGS
row,SMILES,"hERG current change (%, negative = inhibition) at 10uM [%]"
1,Cc1nc2sc(C(=O)OC(C)C)c(N)c2c(C)c1C,13.1
2,Cc1cc(C(C)(C)C)cc(C)c1C[n+]1ccc2ccccc2c1.[Cl-],-37.3
3,COc1ccccc1CC(NC(C)=O)C(=O)N1CCN(C(=O)c2cccs2)CC1 (stereo not drawn),1.39
4,Clc1cccc(N/N=C/c2ccc(N3CCOCC3)cc2)c1,11.9
5,CC12CCC(=O)N1C(C(=O)NCCN1C(=O)S/C(=C\c3ccccc3F)C1=O)CS2 (stereo not drawn),-30.5
6,CCOC(=O)N1CCN(C(=O)CN2C(=O)c3ccccc3S2(=O)=O)CC1,12
7,COC(CNC(=O)CN1C(=O)COc2ccc(S(=O)(=O)N3CCOCC3)cc21)OC,18.9
8,CCc1nnc(NS(=O)(=O)c2ccc(NC(=O)c3cccc(OC)c3)cc2)s1,23.2
9,O=C1CC(NCC2CCCO2)C(=O)N1c1ccc(Cl)cc1 (stereo not drawn),11.2
10,CC1Cn2c(nnc2-c2cc3ccccc3cc2O)S1 (stereo not drawn),16
11,Cc1cccc(C)c1NC(=O)Cn1nnc(-c2ccc(N3CCOCC3)cc2)n1,-42.5
12,CC1OC2C(OC1C)N(S(C)(=O)=O)CCN2S(C)(=O)=O (stereo not drawn),14.9
13,Cc1ccc(N=C2NC(=O)/C(=C/c3cn(C)c4ccccc34)S2)cc1C,6.57
14,COc1ccc(CNS(=O)(=O)c2ccc3c(c2)N(C(C)=O)CC(C)S3)cc1 (stereo not drawn),-12.7
15,COC(=O)c1ccc(-c2nc(CN3CCC(C(=O)N4CCOCC4)CC3)c(C)o2)cc1,-7.65
16,O=C(c1ccco1)N1CCn2c1nc1ccccc12,-12.1
17,CCC(=NCc1cc(OC)cc(OC)c1)c1c(O)n(C)c(=O)n(C)c1=O,-9.04
18,O=[N+]([O-])c1ccc(Cl)cc1N1CCOCC1,20.4
19,O=C(CCn1nc(-c2ccccc2)c2ccccc2c1=O)N1CCN(c2ccccc2)CC1,-45.1
20,CCCCC(=O)Nc1nnc(SCC(=O)NC2CC2)s1,-8.79
21,Cc1ccc(OCc2n[nH]c(=S)n2Cc2ccccc2)cc1,16.1
22,Br.CC(=O)Nc1nc(C)c(-c2csc(Nc3cccc(C(C)=O)c3)n2)s1,2.59
23,Cc1[nH]n2c(=O)c3c(nc2c1-c1ccc(F)cc1)CCCC3,4.02

row,SMILES,"hERG current change (%, negative = inhibition) at 10uM [%]"
1,COc1ccc(NS(=O)(=O)c2c(C)n(C)c(=O)n(C)c2=O)cc1,15.5
2,COC(=O)c1ccc(NS(=O)(=O)NC(=O)c2cn(C)c3ccccc23)cc1,5.08
3,CCOC(=O)c1sc(C)c(C(=O)NCCCN2CCOCC2)c1N,13.9
4,O=C(CSc1nc2ccccc2o1)NCc1ccco1,-0.541
5,Cc1cc(C)c(C)c(OCc2nc(-c3cccnc3)no2)c1,-8.4
6,Cc1ccc(CN(CC(=O)NC2CCCC2)C(=O)CSc2nnc(COc3ccccc3)o2)cc1,12.2
7,S=c1[nH]nc(COc2ccc(Cl)cc2Cl)n1-c1ccccc1,19.1
8,C/C=C/n1ccnc1CC(O)(c1ccccc1)c1ccc(C)cc1 (stereo not drawn),-22.5
9,O=C(c1cc2c(s1)CCCC2)N1CCN(S(=O)(=O)c2ccccc2)CC1,-9.82
10,CN(c1ccc(C(=O)NCc2ccc3c(c2)OCO3)cc1)S(=O)(=O)c1ccccc1,-4.02
11,CCCCN(CCCC)S(=O)(=O)c1c(C)[nH]c(=O)[nH]c1=O,13.9
12,O=C(N/C(=C/c1ccccc1)C(=O)N1CCCCC1)c1ccco1,20.9
13,COc1ccc2c(ccc[n+]2CC(=O)c2ccc(C)cc2)c1.[Br-],-1.8
14,Oc1c(C(c2ccc(Cl)cc2)N2CCCC2)cc(Cl)c2cccnc12 (stereo not drawn),15.9
15,CCN(C(=O)CSc1n[nH]c(-c2ccccc2)n1)c1c(N)n(Cc2ccccc2)c(=O)[nH]c1=O,8.55
16,COc1ccc(NC(=O)CN2CCOCC2)cc1S(=O)(=O)N1CCCCC1,5.55
17,COc1ccc(/C=C2\Sc3ccc(C(=O)NCCCN4CCCC4)cc3N(C)C2=O)cc1OC,-31.8
18,COc1ccc2nc(NC(=O)CSc3n[nH]c(N)n3)sc2c1,-3.93
19,CC(C)(C)NC(=O)c1cccc(NC(=O)c2ccc(NC(=O)c3ccco3)cc2)c1,-26.4
20,Cc1cc(C(=O)NC2CC(C)(C)Cc3c2cnn3-c2ccccc2)n(C)n1 (stereo not drawn),-45.3
21,CCN(CC)CCn1c(=N)n(CC(O)COc2ccccc2)c2ccccc21.Cl (stereo not drawn),-52.1
22,Cc1ccc(-c2nc(NCc3ccco3)n(C(=O)c3ccco3)n2)cc1,3.98
23,CC(OC(=O)c1ccco1)C(=O)NCc1cccs1 (stereo not drawn),3.86

row,SMILES,"hERG current change (%, negative = inhibition) at 10uM [%]"
1,COCCNC(=O)c1ccc(C2SCC(=O)N2CCc2ccccc2)cc1 (stereo not drawn),16.1
2,COc1cccc(-c2nnn(CC(=O)O)n2)c1,9.1
3,COc1ccc(CCC(=O)NCC(c2ccco2)N2CCc3ccccc32)cc1 (stereo not drawn),-44.2
4,COc1cc(-c2nc(S(=O)(=O)c3ccccc3)c(N3CCOCC3)o2)cc(OC)c1OC,-3.94
5,CC(OC(=O)c1cnccn1)C(=O)c1ccccc1 (stereo not drawn),8.33
6,CC(C)Sc1cc(N2CCOCC2)nc(-c2ccc(Cl)cc2)n1,15.2
7,OCCN1CCN(c2nc(N3CCCCC3)nc(N3CCCCC3)n2)CC1,-4.04
8,CNC(=O)c1ccsc1NC(=O)CCS(=O)(=O)c1ccc(C)cc1,-1.91
9,Nc1c2c(nc3c1CCC3)CCCC2,-0.974
10,Cc1ccc(CCNC(=O)C2=CCN(S(=O)(=O)c3ccccc3)CC2)cc1,-30.7
11,Cc1cc(F)ccc1NS(=O)(=O)c1cccc2nsnc12,-6.94
12,N#C/C(=C\c1cc(Cl)ccc1O)C(=O)NC1CCCCC1,-2.17
13,CCN(CC)S(=O)(=O)c1cccc2c(N(C)C)cccc12,-35.6
14,Cc1ccc(OC2=NS(=O)(=O)c3ccccc32)cc1,6.41
15,CC(C)(C)c1ccc(CN2C(=O)CN=C(c3ccccc3)c3ccccc32)cc1,-1.16
16,Cc1noc(C)c1NC(=O)NC(c1ccccc1)c1ccccc1,-11.3
17,CC(=O)N1CCN(C(=S)NC(=O)c2c(-c3ccccc3Cl)noc2C)CC1,6.07
18,Cn1ncc(Cl)c(Oc2ccc(Cl)cc2)c1=O,-17
19,CC(C)CN1CCNC(=O)C1CC(=O)NCc1cnn(-c2cccc(F)c2)c1 (stereo not drawn),19.2
20,Cc1cc(C(=O)COc2ccc(C#N)cc2)c(C)n1-c1ccc2c(c1)OCO2,-16.7
21,COc1ccccc1NC(=O)CSc1nc2sc(C)c(C)c2c(=O)n1Cc1ccco1,8.79
22,O=C(N/N=C/c1cccnc1)c1cccc(NC(=O)c2ccc(Cl)cc2)c1,19.3
23,O=C(Cn1c(N2CCN(c3ccccc3)CC2)nc2ccccc21)c1ccccc1,-16.1

row,SMILES,"hERG current change (%, negative = inhibition) at 10uM [%]"
1,Cc1cccc(NC(=O)CCN2C(=O)c3ccccc3C2=O)n1,3.15
2,CCOc1c(C=C(C#N)C#N)c2ccccc2n1CC,4.25
3,O=C(NCC1CCCO1)c1cc2c([nH]c3ccccc32)c(-c2cccc(Cl)c2)n1 (stereo not drawn),-20.5
4,CCC(C)NC(=O)Cn1nc(C(F)(F)F)c2c1CCC2 (stereo not drawn),1.83
5,CCN(CC)S(=O)(=O)c1ccc(C(=O)O)cc1,20.3
6,Cc1cc[n+](-c2[nH]c(=O)sc2/C=N/N=C(\[O-])c2ccncc2)cc1C,3.74
7,Cc1cc(C)cc(CC(CC(=O)Nc2ccc(Cl)cc2)C(=O)O)c1 (stereo not drawn),18.3
8,Cc1cccc(C(=O)N/N=C/c2ccc3c(c2)OCO3)n1,-13.9
9,O=C(Nc1ccc(N2CCN(C(=O)c3cccs3)CC2)cc1)c1ccc(F)cc1,-15.3
10,CC(C)c1c(CN(C)C(C)Cc2ccccc2)n(C)n(-c2ccccc2)c1=O (stereo not drawn),0.117
11,CCc1ccc2[nH]c(=O)c(CN(CCN3CCOCC3)C(=O)Nc3ccccc3F)cc2c1,-23.1
12,OCc1cccc[n+]1Cc1ccccc1.[Cl-],8.35
13,CSc1nsc(SC)c1C(=O)Nc1ccc(C(C)(C)C)cc1,7.74
14,Cc1ccc(S(=O)(=O)N(C)Cc2nc(-c3ccncc3)no2)cc1,-19.5
15,Cc1cccc(C(C)n2nnc3ccccc32)c1O (stereo not drawn),6.31
16,COc1cc(C(=S)N2CCCC2)ccc1O,18.6
17,CC(Oc1cccc(Cl)c1)C(=O)NCCCCc1ccccc1 (stereo not drawn),-11.1
18,CN(C)/C=N/c1sc2c(c1C#N)CCC2,-3.93
19,CCNCc1nc2cc(OC)c(OC)cc2c(=O)[nH]1,-14.6
20,O=c1[nH]c(O)c(C=NC2CCN(Cc3ccccc3)CC2)c(=O)[nH]1,-31.6
21,Nc1c(C(=O)NCCN2CCOCC2)c2nc3ccccc3nc2n1-c1cccc(F)c1,-33.2
